Assay results published in publication PMC4336329 (PLoS ONE, 2015).
About 14,000 (4.5%) of roughly 310,000 compounds showed an effect of 50% or more. The effect is printed as a negative number. The list shows a part of the results.

Biological target: human ether-à-go-go-related gene (hERG) potassium channel (human, UniProt Q12809)
Experiment: primary screen, population patch clamp on CHO cells stably expressing hERG
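Note: peak tail current of the secondary pulse compared with the same well before compound.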

Sequence of human ether-à-go-go-related gene (hERG) potassium channel (Q12809 whole entry, looked up): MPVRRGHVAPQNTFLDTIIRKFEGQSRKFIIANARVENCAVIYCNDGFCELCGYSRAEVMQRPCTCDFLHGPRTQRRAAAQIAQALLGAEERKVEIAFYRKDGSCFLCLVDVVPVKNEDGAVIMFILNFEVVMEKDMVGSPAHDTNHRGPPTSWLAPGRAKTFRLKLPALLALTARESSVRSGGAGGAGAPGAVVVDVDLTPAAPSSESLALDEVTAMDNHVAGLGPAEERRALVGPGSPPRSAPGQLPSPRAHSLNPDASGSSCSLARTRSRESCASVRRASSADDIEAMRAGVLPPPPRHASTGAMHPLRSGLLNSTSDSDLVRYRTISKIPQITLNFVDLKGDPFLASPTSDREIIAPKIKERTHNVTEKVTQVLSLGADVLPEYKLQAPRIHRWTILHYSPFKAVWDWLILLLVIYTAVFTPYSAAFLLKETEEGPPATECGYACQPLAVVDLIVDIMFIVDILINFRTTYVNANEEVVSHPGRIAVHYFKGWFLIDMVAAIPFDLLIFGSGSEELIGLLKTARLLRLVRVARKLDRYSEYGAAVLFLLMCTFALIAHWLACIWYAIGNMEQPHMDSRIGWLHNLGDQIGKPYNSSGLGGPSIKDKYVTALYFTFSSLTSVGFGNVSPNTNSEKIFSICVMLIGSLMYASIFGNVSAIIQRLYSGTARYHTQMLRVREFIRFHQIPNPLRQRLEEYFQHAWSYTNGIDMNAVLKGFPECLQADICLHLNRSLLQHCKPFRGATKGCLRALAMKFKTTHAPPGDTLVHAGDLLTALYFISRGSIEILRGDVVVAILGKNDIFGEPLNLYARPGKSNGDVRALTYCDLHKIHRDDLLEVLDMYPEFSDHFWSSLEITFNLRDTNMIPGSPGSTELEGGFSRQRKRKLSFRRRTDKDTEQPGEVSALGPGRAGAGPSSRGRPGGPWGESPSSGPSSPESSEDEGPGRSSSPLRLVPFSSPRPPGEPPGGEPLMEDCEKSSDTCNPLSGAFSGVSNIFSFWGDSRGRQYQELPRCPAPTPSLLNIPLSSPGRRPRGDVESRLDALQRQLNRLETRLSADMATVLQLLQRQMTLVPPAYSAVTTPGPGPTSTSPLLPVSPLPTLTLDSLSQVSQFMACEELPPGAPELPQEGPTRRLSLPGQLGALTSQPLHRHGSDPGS

Row | SMILES | hERG current change (%, negative = inhibition) at 10uM
1 | Cc1cc(C)c(C)c(S(=O)(=O)N[C@@H](C)C(=O)OCc2cc(=O)n3cc(Br)ccc3n2)c1C | -47%
2 | COc1ccc(/C=C/c2nnc(NC(=O)COc3ccc(C)cc3)s2)cc1 | 12.5%
3 | CCOC(=O)CSc1nc2ccc(S(=O)(=O)N3CCOCC3)cc2[nH]1 | 17.4%
4 | O=C(Nc1ccc2c(c1)OCO2)c1cccc(Cl)c1 | 1.59%
5 | O=C1NC2(CCCCC2)NN1c1ccccc1 | 13.8%
6 | O=C(OC1CCCCC1)c1ccc(NC(=O)c2ccco2)cc1 | -23.6%
7 | O=C(CCCN1C(=O)c2ccccc2C1=O)Oc1ccc(F)cc1 | -19.2%
8 | O=C(CS(=O)(=O)c1ccccc1Cl)N1CCOCC1 | 21.9%
9 | COCCNC(=O)CCn1nc(-c2ccc(C)cc2)c2ccccc2c1=O | -18.6%
10 | O=c1cc(CN2CCc3ccccc32)c2ccc(O)cc2o1 | -0.218%
11 | Cc1cc(=O)oc(C)c1C(=O)NCCC1=CCCCC1 | -5.61%
12 | O=S(=O)(c1ccccc1Cl)N1CCC(O)(c2cccnc2)CC1 | 20.2%
13 | O=C(Nc1ccccc1N1CCOCC1)c1cccc(S(=O)(=O)Nc2ccccc2F)c1 | -37.1%
14 | O=C(Cc1ccccc1)NCC(=O)Nc1cccc(Br)c1 | -9.9%
15 | NCCCC[C@H]1CNC(=S)N1CCc1cccc(F)c1 | -3.37%
16 | COc1ccccc1/C=C\C=N\NC(=O)c1ccco1 | -6.34%
17 | CN(N)c1nc2ccccc2nc1C(F)(F)F | 12%
18 | COc1ccc2oc(C(=O)N(Cc3ccco3)Cc3cccs3)c(C)c2c1 | -23.5%
19 | CCc1cc(C(=O)OC)c(NC(=O)CC2SC(=NC)N(C)C2=O)s1 (stereo not shown) | -1.73%
20 | O=C(CCc1nnc2ccc(NCCCN3CCCC3=O)nn12)NCc1ccccc1Cl | -1.05%

Row | SMILES | hERG current change (%, negative = inhibition) at 10uM
21 | COc1ccccc1N1CCN(/N=C\c2ccccc2)CC1 | 8.74%
22 | S=c1[nH]nc(-c2ccco2)n1/N=C/C(Cl)=C/c1ccccc1 | 5.55%
23 | COc1ccc(-c2cc(C(=O)NN)[nH]n2)cc1OC | 6.6%
24 | O=C(O)CCN1C(=O)/C(=C\c2cccc(OCC(=O)Nc3ccc(Cl)cc3)c2)SC1=S | 11.2%
25 | O=C(c1cc(COc2ccc(F)cc2Cl)on1)N1CCCCC1c1cccnc1 (stereo not shown) | -41.8%
26 | CN1CCN(C(=O)c2cccc(COc3cc(Cl)ccc3Cl)c2)CC1 | -41.6%
27 | CCOc1ccc(NC(=O)/C(C#N)=C/c2cn(CC(=O)O)c3ccccc23)cc1 | 8.76%
28 | COc1ccc(NC(=O)Nc2ccon2)c(OC)c1 | 14.8%
29 | Cc1cc(C)n(C(C)Sc2ccccc2)n1 (stereo not shown) | 10.5%
30 | CC(C)CC(C(=O)NC(C)(C)C)N(Cc1ccccc1Cl)C(=O)c1snc(C(N)=O)c1N (stereo not shown) | 7.57%
31 | CC(C)(C)NC(=O)C(Cc1ccccc1)N1C(=O)c2ccccc2C1=O (stereo not shown) | 6.68%
32 | c1ccc(CO/N=C(\c2ccc(C3CC3)nc2)C2CC2)cc1 | 13.5%
33 | CCC(C)c1ccc(NC(=O)COC(=O)c2nc3nccc(C)n3n2)cc1 (stereo not shown) | -10.9%
34 | CC(=O)c1ccc(N(C(=O)Cc2c[nH]c3ccccc23)C(C(=O)NC2CCCCC2)c2cccs2)cc1 (stereo not shown) | 7.81%
35 | COc1cccc(C(=O)Nc2ccc3[nH]c(=O)[nH]c3c2)c1OC | 26.2%
36 | COCCNC(=O)C1Nc2ccc(OC(F)(F)F)cc2C2C=CCC12 (stereo not shown) | -17%
37 | CC(C)c1c(O)nc(SCC(=O)N2CCOCC2)[nH]c1=O | -14.9%
38 | Cc1cc(-c2ccco2)n(CC(=O)NCc2ccco2)n1 | 8.48%
39 | O=C(O)CC(CC(=O)Nc1nncs1)c1ccccc1 (stereo not shown) | -4.93%
40 | CCC1(c2ccc(OC)cc2)NC(=O)N(CC(=O)c2ccc3c(c2)OCCO3)C1=O (stereo not shown) | -1.85%

Row | SMILES | hERG current change (%, negative = inhibition) at 10uM
41 | Cc1ccc(-c2cn(CCN)c(-c3ccncc3)n2)cc1 | -5.35%
42 | CC(=O)C[C@H]1c2cc(C(F)(F)F)ccc2S(=O)(=O)N1C1CCCC1 | -12.1%
43 | C=CCOc1ccc(Cl)cc1C(=O)O | 6.26%
44 | FC(F)(F)c1cccc(CNC2CCN(Cc3ccccc3)CC2)c1 | -28.3%
45 | CC1C(c2cccs2)=[N+]([O-])C(C)(C(=O)c2cccs2)N1O (stereo not shown) | 23.2%
46 | CC1Cc2nc(SCC(=O)N3CCCC3)n(C)c(=O)c2S1 (stereo not shown) | -7.79%
47 | Cc1ccc(NC(=O)c2ccc(CSc3nnc(-c4ccncc4)n3C)cc2)c(C)c1 | -4.89%
48 | CCOC(=O)Cc1cc(-c2ccc(O)cc2)nc2ccc3ccccc3c12 | -9.56%
49 | CC(=O)c1cccc(CN2CCN(Cc3ccccc3)C(CCO)C2)c1 (stereo not shown) | -1.84%
50 | N#Cc1ccccc1OCC(=O)NNC(=O)c1ccncc1 | 9.65%
51 | CCOC(=O)c1cc(-c2ccco2)nc2c1c(C)nn2-c1ccccc1 | 11.2%
52 | COc1ccccc1/C=N/NC(=O)C(C)Cn1cnc2ccccc21 (stereo not shown) | 0.86%
53 | CC(=O)Nc1ccc(CN2CCN(C3CCCCC3)C(CCO)C2)cc1 (stereo not shown) | 13.7%
54 | Clc1ccc(CNC23CN4CN(CN(C4)C2)C3)c(Cl)c1 | -1.63%
55 | COc1ccc(OC)c(NC(=O)CSc2nnnn2C)c1 | 13.3%
56 | CCN1CCN(C2=C(NS(=O)(=O)c3ccc(Br)cc3)C(=O)c3ccccc3C2=O)CC1 | -61.5%
57 | Br.Cn1c(=N)n(CC(=O)c2cccs2)c2ccccc21 | -0.146%
58 | CCC(C)NS(=O)(=O)c1ccc(S(=O)(=O)N(CCc2ccc(OC)c(OC)c2)Cc2cccs2)cc1 (stereo not shown) | -5.84%
